Read counts are not given, so values of variants with three or more changes are uncertain.
B1: LINE1-mini (parent)
chain: GGCAGAGCUCAACACAGCGUGGCAAAGUGGCUGUGGCUAGACUGCC

Variants of: B1
Experiment: self-cleavage, relative activity (ratio to wild type); higher = more cleavage; in vitro, sequencing; the parent is a self-cleaving ribozyme

Variant | self-cleavage
C8A G27A C37U G44U | 0.02
A24G A25C U43A G44C | 0.08
A12U G21C A25U U43C | 0.03
G7U G17A G27C | 0.04
G19U G27U C42G | 0
G1C A6G G22A C45U | 0.01
G1U G2C U9A G21C G33C | 0.01
G5A U9A C18U G29A | 0.12
A12G G29U C37G | 0.02
C8U C10G G36U C46U | 0.02
C3A G7A C13A | 0.19
A14U G21U U38A A41G | 0.01
A6C C13U G22C | 0.08
C31G C37G G44C | 0.01
G1A G5A G35A | 0.18
G17U G30C C31A C37A | 0.04
A6G A11G A16C C31A | 0.02
G5C A11U A16U G33C | 0.01
G1A C3A G17A A26U | 1.48
C15U A16C G22C A24U | 0.05
G19U U20A U28A A39G G40U A41U C45U C46U | 0.05
A11U G29C G35U | 0.02
U9G C13A G27U U43G | 0.03
C8G U32G C37U | 0.06

Variant | self-cleavage
G2U G17C C45G | 0.04
C3U C18G U20A | 0.07
C10A A24C G36C | 0
C8U G35A C42G | 0.24
A6U C10A G35C | 0.1
G2A G5C A16G U20C A41U C42A | 0.05
C10G C13U G27U G36U G40C C45U | 0
G1U A26G G35U | 0.08
C3U C15G C18U G35U | 0.08
C3U U20C G33C U38G | 0.02
C10G G19U U43C | 0.03
G2A C3G G5A G7U U28A U34G G36U | 0.21
A12G G21C C23U | 0
C23U U28C G33U | 0.07
U9G U28C G29C | 0.03
G7U G19C A24G | 0.05
U20G G29C G44C | 0.02
G33C A41C C42U | 0.04
G5C C15A G21U G33A | 0.05
G1C C13A A16G | 0.05
C10A G22C U43C G44U | 0
G2U A12C G22U | 0.02
G1U C13A C23A U28G U38C G44C | 0.02
C3A C13A U20C G22A G40U | 0.21

Variant | self-cleavage
C18U G27U U32C | 0.05
G2C A6G A12U C23U G36C | 0.05
G2A A25G C46U | 0.18
G5C A25U U43A | 0.02
G2A A12G A16C G17U U32C G36C | 0.07
G1U G5U C8A G19C G40A | 0.03
G29C U38C C45U | 0.26
A25U U32A G33U U34A | 0
U34A G44A C46G | 0.01
G36U G40C U43G | 0.02
A11U C18A G40A | 0.01
G5C U9A G36U C46A | 0.04
A6U G7A C37A C42A | 0.06
G1U C8U C15A G21A | 0.07
A16U C18A C31U G35A | 0
C8U A16U G35A | 0.3
C13A U34C U38A G40U C42U C45U | 0.06
G2C G5A G19C G22A G36A | 0.04
A6G U20A C23U G29U U34G | 0
C10G C15A U34G | 0.01
G2U A6G A16U G17C G21U A26U | 0.03
G2A A12G A16G C23G | 0.03
C3A C31U G36U | 0.33
C10G A16U U20G U34A | 0.03

Variant | self-cleavage
A14C G19C G22C G29U G40A | 0.03
G2C A6G G22U G33U U43A | 0.04
A25G U32A G33A U43A G44C | 0.03
G17U C23G G29A U34G C37U | 0.02
C10A G21A G29A | 0.06
G1C C10A G21C U28A G33C | 0
G2A G29U C31G U34C G36A | 0.2
A26G G33C C46U | 0.06
U9G U32C G35C G40A | 0.09
C15G G36U U38C | 0.01
G1A G2A A41G | 1.05
C31U C37G U38A | 0.09
C10G A26U U34C | 0.01
C18A G22U G27A C31U U43G | 0.01
A12U G17U C37U G40U | 0.03
C8U A11G C15G | 0.02
C8U U43C C45A | 0.3
G7A G17A G30U G44U | 0.06
G2A C13G G17A G19A G27C | 0.08
G17A U20A G22A A26G U43G | 0.13
U28G C31U G33C G44A | 0.03
C3U C8A C42A | 0.31
A11C G36U G40C | 0.02
G5C A11U C13A A24U G33C G36A C42A | 0.01

Variant | self-cleavage
G17C A25C U28C | 0.16
U9G A11C G36C C37U | 0.02
C8A A25G A26G | 0.07
G2A A25C G40U A41C | 0.17
G7A A16G U32C G35U G44U | 0.01
G1U G33U G36U A41C | 0.02
G1C U32G G36U | 0.06
C3U U9G U43G | 0.71
A26U U28G U32A G35C A39U | 0.08
C3A G5A C10A C23A A25C U32G | 0.01
A14C U20C U28G | 0.19
U9C A11C U28G U34C A39U | 0.02
G17U C18A G27A U28A U38G C42A | 0.09
G21C A25U U28A | 0.42
G30C U34G U38A | 0.06
A25U G35A C42G | 0.01
C3G G7U A24C A25G | 0.31
A6G A14G G40C C42U | 0.06
U9A A24U C37U | 0.07
A4G U20G A39U G40U | 0.14
C18G G22A G29C C31G C42A | 0.01
G2U A6C G7U A24U G35A C46U | 0.03
A6C A11C G40U | 0.04
C3A U9G C18G G35A G36U | 0.66

Variant | self-cleavage
A16G C31U G40A G44A C46U | 0.02
G21A G29U C45A | 0.34
C37U G40A C46G | 0.09
A11C C31U G33U | 0
A6U A25U G29C | 0.07
G2C C3U C15G C31A | 0.01
C3A C8U C10U C13G | 0.09
U9G G17C U34C A41C | 0.04
C18U U20G U28C G29U C31U G33U | 0.02
U28C U32A A39C | 0.01
A11U G29U A41U G44C | 0.09
A11U G21A G33C | 0
A6G A12U G22U | 0.07
G5C C15G G29C G36C | 0.02
U9A U20G C45G C46G | 0.11
G7C A16U G30C A41U | 0.17
G5U C10A C15G | 0.02
G1A G17C C37G C42G U43A | 0.03
A6U C10A C15A G17C G21U C42U | 0.01
A11G C13A G21A G40U | 0.01
C18U A26U G27U G36A | 0.18
C3U C13G C15U G22A U34C C42G | 0.19
G1U C3U G7A C8U A14G A26C U38A | 0.72
G2U C23A C46G | 0.04

Variant | self-cleavage
A11U G17U A24U A41G | 0.02
G5A C18U G19U G27C | 0.11
G21C G22U G30U U38C U43C | 0.06
U9G U20A G21C G35C U43G | 0.03
C10A G22C C31U U32G | 0.04
C3U G30A C37G C46U | 0.1
C3A A11C G30A | 0.07
G7C C13U C15U G19A G35U | 0.24
C15U A24U C46G | 0.5
A16C A25C G30A U38A | 0.04
C13U A14U A24G U28A G33C | 0
G2A C3G U9G C31U U38A G40U | 0.06
C8A C15U C23U C31G U43A | 0.08
U9A C10A A14C G21U A39U | 0.05
C8U C18A U20C G22A | 0.02
A4U A11G U20C A25U C31U | 0.03
A16C C45U C46G | 0.03
C15A U28A G30U | 0.06
C8G C15A U28G A41U C42U | 0.15
G22U C31U A41C G44U | 0.05
G1U G21U G27C U34G | 0.17
C8A C23G G29C U32G | 0.05
G7C C31U G33A | 0.04

— the RNAGym collection of RNA variant scans (doi:10.7554/elife.90254)
